Screen size: about 310,000 compounds; about 2,200 (0.71%) showed an effect of 50% or more. The effect is printed as a negative number. Some of the results follow.
molecular target: human ether-à-go-go-related gene (hERG) potassium channel (human, UniProt Q12809); experiment: primary screen, population patch clamp on CHO cells stably expressing hERG
Sequence (Q12809 whole entry, looked up): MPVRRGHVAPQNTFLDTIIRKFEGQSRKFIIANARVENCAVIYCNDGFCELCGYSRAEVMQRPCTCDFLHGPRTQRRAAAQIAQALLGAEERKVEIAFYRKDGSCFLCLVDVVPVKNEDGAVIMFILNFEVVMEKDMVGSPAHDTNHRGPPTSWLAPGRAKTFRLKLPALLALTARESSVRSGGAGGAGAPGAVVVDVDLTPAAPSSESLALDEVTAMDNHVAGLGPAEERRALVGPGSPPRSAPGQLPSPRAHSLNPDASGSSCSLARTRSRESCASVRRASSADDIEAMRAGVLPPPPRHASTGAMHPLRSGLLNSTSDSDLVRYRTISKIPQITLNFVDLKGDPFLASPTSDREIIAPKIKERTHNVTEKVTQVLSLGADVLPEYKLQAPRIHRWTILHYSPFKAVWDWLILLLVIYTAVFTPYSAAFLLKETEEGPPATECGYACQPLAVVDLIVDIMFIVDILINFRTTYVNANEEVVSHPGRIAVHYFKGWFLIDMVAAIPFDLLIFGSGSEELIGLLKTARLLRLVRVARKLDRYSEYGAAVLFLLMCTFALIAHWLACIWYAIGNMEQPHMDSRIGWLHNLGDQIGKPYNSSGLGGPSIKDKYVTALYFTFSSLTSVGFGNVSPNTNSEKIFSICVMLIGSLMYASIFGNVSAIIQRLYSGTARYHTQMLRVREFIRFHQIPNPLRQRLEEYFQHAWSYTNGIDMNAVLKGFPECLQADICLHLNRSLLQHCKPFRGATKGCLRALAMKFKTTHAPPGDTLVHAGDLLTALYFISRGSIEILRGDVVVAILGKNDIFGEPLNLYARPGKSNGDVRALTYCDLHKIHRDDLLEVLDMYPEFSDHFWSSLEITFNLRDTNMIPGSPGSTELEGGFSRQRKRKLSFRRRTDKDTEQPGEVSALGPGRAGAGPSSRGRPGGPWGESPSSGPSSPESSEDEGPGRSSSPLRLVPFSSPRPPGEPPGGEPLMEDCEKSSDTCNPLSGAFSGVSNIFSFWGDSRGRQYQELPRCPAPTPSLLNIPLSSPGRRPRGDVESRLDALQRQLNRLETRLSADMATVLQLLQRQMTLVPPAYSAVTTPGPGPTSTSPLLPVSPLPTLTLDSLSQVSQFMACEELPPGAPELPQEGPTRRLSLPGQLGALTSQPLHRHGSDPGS

Row | Compound | hERG current change (%, negative = inhibition) at 1uM
1 | O=C(NCc1ccccc1Cl)c1ccc(CSc2nc3ccncc3[nH]2)cc1 | -0.245%
2 | c1cc2c(cnc3cscc32)s1 | 11.7%
3 | CN(C(=O)COC(=O)CCC(=O)c1ccccc1)c1c(N)n(Cc2ccccc2)c(=O)[nH]c1=O | 9.1%
4 | Cc1cc(=O)oc(C)c1C(=O)NCCN(C)Cc1ccccc1 | 8.58%
5 | CN1CCc2nc(N)c(C#N)c(-c3ccccc3)c2C1 | -2.89%
6 | CN1C(=O)C(C)(C)c2cc(S(=O)(=O)N3CCC(C(=O)NCc4ccccc4Cl)CC3)ccc21 | 7.64%
7 | CCNC(=O)C1CCN(S(=O)(=O)c2ccc(F)cc2)CC1 | 7.71%
8 | CC(C)CCOCC(O)CCC(=O)NNC(=S)Nc1ccccc1 (centres unmarked) | 9.68%
9 | CN1CCN(C(=S)NC(=O)c2ccc(-c3ccccc3)cc2)CC1 | 9.84%
10 | COc1cccc(N2CCN(Cc3ncc(-c4ccccc4)o3)CC2)c1 | 11.5%
11 | COc1ccccc1CCNC(=O)C(=O)NCC1OCCN1S(=O)(=O)c1ccc([N+](=O)[O-])cc1 (centres unmarked) | -0.195%
12 | Cc1ccc(NC(=O)c2cccs2)cc1NC(=O)c1ccccc1Cl | 13.8%
13 | Cc1c(C)c2ccc(O[C@@H]3O[C@H](CO)[C@H](O)[C@H](O)[C@H]3O)c(C)c2oc1=O | 5.64%
14 | O=C(O)Cc1sc(Nc2ccccc2)nc1-c1ccc(Cl)cc1 | 6.57%
15 | CCOC(=O)Nc1cc2c(C)cc(=O)oc2cc1C | 14.4%
16 | COC(=O)c1cccc(C(=O)Oc2cccc(Br)c2)n1 | 2.4%
17 | COc1ccccc1CNC(=O)CCC(=O)N1Cc2cccc(OC)c2Oc2ncccc21 | 10.1%
18 | Cc1ccccc1OCCC(=O)N(CC(=O)Nc1ccccc1C(F)(F)F)Cc1ccco1 | 2.85%
19 | CCc1nc(SCC(=O)NCc2ccco2)c2c3c(sc2n1)CCCC3 | 5.72%
20 | CCSc1sccc1C1C(C#N)=C(N)N(c2cccnc2)C2=C1C(=O)CCC2 (centres unmarked) | -3.01%
21 | O=C(O)C[C@@H](CNC(=O)COc1ccc2ccc(=O)oc2c1)c1ccc(Cl)cc1 | 2.62%
22 | COc1cccc(CC2(CO)CCN(S(=O)(=O)N(C)C)CC2)c1 | 12.7%

Row | Compound | hERG current change (%, negative = inhibition) at 1uM
23 | Cc1ccc(/C=N/Nc2ccccn2)s1 | 13.7%
24 | CC(C)N1CCC(N2CCN(C3CCCC3)CC2CCO)CC1 (centres unmarked) | 4.59%
25 | CCOC(=O)c1cnc2c(C)cccc2c1NCc1ccco1 | -45.3%
26 | CCOc1ccc(N(CC(=O)NCCc2ccccc2)C(=O)CCC(=O)Nc2cc(C)ccn2)cc1 | 3.93%
27 | CC(=O)c1cccc(NC(=O)CSc2nnc(-c3ccc(S(=O)(=O)N4CCCC4)cc3)o2)c1 | -7.21%
28 | COc1cc(C(=O)Nc2nnc(C(F)(F)F)s2)c([N+](=O)[O-])cc1OC | 15.5%
29 | CN(c1ccccc1)S(=O)(=O)c1ccc(NC(=O)c2ccco2)cc1 | 4.81%
30 | O=S(=O)(c1ccccc1)N1CCN(c2nc(-c3cccs3)nc3ccccc23)CC1 | 14.8%
31 | CC(C)On1c(SCC(=O)N(C)C)nc2ccccc2c1=O | 8.8%
32 | OCCN(CC(O)Cn1ccc2ccccc21)CC(O)Cn1ccc2ccccc21 (centres unmarked) | 4.62%
33 | Cn1c(-c2ccc(F)cc2)cnc1NCc1cc2c(cc1[N+](=O)[O-])OCO2.O=C(O)C(=O)O | -21.6%
34 | CCOC(=O)C1CCN(C(=O)COC(=O)C2CCN(S(=O)(=O)c3ccc(C)c(C)c3)CC2)CC1 | 4.73%
35 | O=C(COc1ccc(S(=O)(=O)N2CCOCC2)cc1Cl)N1CCOCC1 | 14.5%
36 | Clc1ccc(-c2nnc3n2CCCC3)cc1Cl | 16.4%
37 | CCOc1ccc(/C=N/NC(=O)C2CC2)cc1OC | 19.1%
38 | COc1cccc(/C=C2\SC(=S)N(CCCC(=O)N(CCO)c3ccccc3)C2=O)c1 | 11.3%
39 | CN1CCc2nc(NC(=O)COc3ccc4ccccc4c3)sc2C1 | 11.7%
40 | O=C(c1cccc(C(F)(F)F)c1)C1CCCN(C(=O)CCn2cnnn2)C1 (centres unmarked) | 4.61%
41 | C/C(=C\C(=O)c1ccc(Cl)cc1Cl)N(C)C | 3.32%
42 | CC(C)/C=N/Nc1nc2c(c(=O)n(C)c(=O)n2C)n1C | 7.34%
43 | COc1ccc(N(CC(=O)N2CCOCC2)S(C)(=O)=O)cc1Cl | -1.45%
44 | CCN1C(=O)[C@@H]2[C@@H](c3ccc(-c4ccc(C(C)=O)cc4)cc3)N3CCCC[C@@]3(C(=O)OC)[C@@H]2C1=O.O=C(O)C(F)(F)F | 10.1%
